Test results from PMC9706486, “INOSITOL (1,3,4) TRIPHOSPHATE 5/6 KINASE1-dependent inositol polyphosphates regulate auxin responses in Arabidopsis” (Plant Physiology, 2022).
These are yes or no findings as the source states them, for the method shown. Binding seen in cells or lysates may run through a third protein. Some results given as binding are weak or reduced against the parent protein; the word gives no strength. Tags and fused reporters may be left off the sequences shown. Each block holds one molecule with its values, some of them ahead of it.

Protein sequences, listed by entry. Tags and fused reporters are not part of them.
UniProt P05804: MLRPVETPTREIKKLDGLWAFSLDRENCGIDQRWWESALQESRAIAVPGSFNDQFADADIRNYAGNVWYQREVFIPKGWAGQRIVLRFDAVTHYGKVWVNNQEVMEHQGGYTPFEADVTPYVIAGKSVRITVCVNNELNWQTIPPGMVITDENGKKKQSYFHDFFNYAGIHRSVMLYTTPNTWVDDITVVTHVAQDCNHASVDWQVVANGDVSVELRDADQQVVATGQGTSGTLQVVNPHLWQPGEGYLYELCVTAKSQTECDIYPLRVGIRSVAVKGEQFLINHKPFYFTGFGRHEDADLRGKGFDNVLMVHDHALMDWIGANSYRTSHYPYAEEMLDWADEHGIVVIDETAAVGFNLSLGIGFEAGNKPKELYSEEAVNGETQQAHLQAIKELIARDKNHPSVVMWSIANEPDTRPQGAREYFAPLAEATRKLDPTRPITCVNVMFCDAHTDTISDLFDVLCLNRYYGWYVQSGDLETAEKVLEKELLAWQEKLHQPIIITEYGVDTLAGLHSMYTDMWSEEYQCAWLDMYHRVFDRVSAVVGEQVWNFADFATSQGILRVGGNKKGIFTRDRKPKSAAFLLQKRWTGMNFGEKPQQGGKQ

Columns and labels:
[1] = molecular target: T1, cCFP-TIR1 (Arabidopsis thaliana) (UniProt Q570C0); experiment: split reporter; BiFC with nVenus- and cCFP-tagged constructs co-expressed in N. benthamiana leaves by agroinfiltration; confocal microscopy about 48 h post-infiltration, YFP filter
T1 sequence: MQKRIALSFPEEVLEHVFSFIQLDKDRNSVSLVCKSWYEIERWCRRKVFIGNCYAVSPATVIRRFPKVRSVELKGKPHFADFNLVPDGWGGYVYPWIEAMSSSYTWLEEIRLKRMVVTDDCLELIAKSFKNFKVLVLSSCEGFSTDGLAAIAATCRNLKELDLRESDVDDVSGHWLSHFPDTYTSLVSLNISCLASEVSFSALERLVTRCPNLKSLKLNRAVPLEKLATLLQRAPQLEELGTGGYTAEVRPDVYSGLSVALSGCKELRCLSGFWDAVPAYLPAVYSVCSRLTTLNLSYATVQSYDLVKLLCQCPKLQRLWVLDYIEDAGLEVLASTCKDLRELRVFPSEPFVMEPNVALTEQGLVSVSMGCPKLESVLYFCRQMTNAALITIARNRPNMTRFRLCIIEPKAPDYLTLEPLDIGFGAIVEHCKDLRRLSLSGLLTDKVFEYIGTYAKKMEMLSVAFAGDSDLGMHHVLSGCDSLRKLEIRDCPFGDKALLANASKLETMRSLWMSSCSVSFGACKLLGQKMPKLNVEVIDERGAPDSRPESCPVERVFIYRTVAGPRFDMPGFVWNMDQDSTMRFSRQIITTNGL

[2] = molecular target: T2, nVenus-ITPK1 (Arabidopsis thaliana) (UniProt Q9SBA5); experiment: as above
T2 sequence: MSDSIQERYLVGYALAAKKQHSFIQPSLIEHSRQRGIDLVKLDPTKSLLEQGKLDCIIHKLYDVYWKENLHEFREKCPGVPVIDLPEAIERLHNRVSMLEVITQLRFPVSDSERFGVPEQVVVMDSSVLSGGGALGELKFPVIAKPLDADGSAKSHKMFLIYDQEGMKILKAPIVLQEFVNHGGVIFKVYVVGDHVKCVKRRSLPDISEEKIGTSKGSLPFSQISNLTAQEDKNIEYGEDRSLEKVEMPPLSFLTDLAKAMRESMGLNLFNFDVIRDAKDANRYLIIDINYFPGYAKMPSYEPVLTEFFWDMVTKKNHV

[3] = molecular target: T3, ITPK1–G3GFP (INOSITOL (1,3,4) TRIPHOSPHATE 5/6 KINASE1 in translational fusion with C-terminal G3GFP) (Arabidopsis thaliana) (UniProt Q9SBA5); experiment: co-IP; total leaf extracts of transgenic Arabidopsis plants in RIPA buffer, pre-cleared with IgG agarose, anti-GFP agarose beads overnight at 4°C; immunoblot with anti-GFP or anti-TIR1 antibodies
T3 sequence: T2 sequence

[4] = molecular target: T4, cCFP-ITPK1 (Arabidopsis thaliana) (UniProt Q9SBA5); experiment: split reporter; BiFC with nVenus- and cCFP-tagged constructs co-expressed in N. benthamiana leaves by agroinfiltration; confocal microscopy about 48 h post-infiltration, YFP filter
T4 sequence: T2 sequence

- binding [1]: no binding
- binding [2]: no binding
Molecule: BiFC construct of GUS (from UniProt P05804 1-603) (enzyme)

- binding [3]: binds
B1: TRANSPORT INHIBITOR RESPONSE1 (TIR1), endogenous (protein, UniProt Q570C0 1-594)
chain: T1 sequence

- binding [2]: binds
B2: cCFP-TIR1 (protein, UniProt Q570C0 1-594)
chain: T1 sequence

- binding [4]: binds
B3: nVenus-TIR1 (protein, UniProt Q570C0 1-594)
chain: T1 sequence
